Reference: the supplement of paper PMC11417369
The other results are listed elsewhere or left out.

What follows are sequences tested on PF3D7_0420300 AP2 domain 1 (GST-tagged) (assay: gcPBM binding intensity (ln(normalized median fluorescence intensity)); higher = stronger DNA binding).
Outline: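 For binding intensity, the highest Masliner-normalised natural-log median intensity across replicate spots of either probe orientation was taken. Protein bound to the array was stained with Alexa488 anti-GST antibody and scanned at 488 nm. The protein, GST-tagged P. falciparum DNA-binding domains from E. coli at about 25 μg on average, had been applied for 1 h to an Agilent 4 × 180k array of primer-extended double-stranded 36-bp intergenic genomic probes and negative controls.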
For “ATCAAATTTGGACATGCATGTGTGTGTAAAACCATG [TGCATGCA_site309]”, the “gcPBM binding intensity (ln)” value was 10.
In the case of “ATATTAGTCGAATGATGTACACACATACAAAACATT [XGTACX_site8613]”, the “gcPBM binding intensity (ln)” value was 9.73.
For “TTCTTCAATAATAAGTGTACATATGCATACATTATA [XGTACX_site1502]”, the “gcPBM binding intensity (ln)” value was 9.17.
For “AATTAAAAAATTTATGCACACTTTAAAAAAAAAAAA [CACACA_site5962]”, the “gcPBM binding intensity (ln)” value was 9.06.
For “ATAATAAAATAAGAAGCACACAAATATTATATATAA [CACACA_site9319]”, the “gcPBM binding intensity (ln)” value was 9.76.
In the case of “AAAAAAAATAAAAATAGTACTCAAAAAATTATGAAT [XGTACX_site3073]”, the “gcPBM binding intensity (ln)” value was 9.19.
For “ATATTAATTTCTTATGCATGTTCTACCAAATTGTAT [TGCATGCA_site38]”, the “gcPBM binding intensity (ln)” value was 9.51.
“GATATGATATGATATGCATGTAACAAATTTTTTTAA [TGCATGCA_site268]” was tested, and the “gcPBM binding intensity (ln)” value was 9.02.
With “AAAAAAAAATATATATATATATATATATTTATGTAT [GTGCAC_negctrl_site483]” the “gcPBM binding intensity (ln)” value was 9.04.
In the case of “TATATATAATATACATGTACAAATGTATTTAAAAAT [XGTACX_site6090]”, the “gcPBM binding intensity (ln)” value was 9.31.
With “CAAAAAAAGAAAGCTACACACATTTATGTGCTATAT [CACACA_site2777]” the “gcPBM binding intensity (ln)” value was 9.45.
With “AATTAAAAATTCAAGTGTACTTTTATATTATTATAC [XGTACX_site4106]” the “gcPBM binding intensity (ln)” value was 9.12.
“ATTATAATAGTTAAATGTACACACTAACTACATGGA [XGTACX_site6918]” was tested, and the “gcPBM binding intensity (ln)” value was 9.36.
In the case of “ATTCGGATATATATCACACATAACTTTAATAATATA [CACACA_site5720]”, the “gcPBM binding intensity (ln)” value was 9.21.
For “TAAATAGCCAAACGCACACCCACAAAAAAAAAAAAA [CACACA_site1554]”, the “gcPBM binding intensity (ln)” value was 9.31.
In the case of “CTCAACATATACGTAACACACATATATATATATATA [CACACA_site3838]”, the “gcPBM binding intensity (ln)” value was 9.41.
With “TCTACAAGGCTTGATCGTACAATTTGAATGTATTTG [XGTACX_site7698]” the “gcPBM binding intensity (ln)” value was 9.24.
With “AGCATAAACAATTTTTGAAAAAATATACACTCATAG [CACACA_negctrl_site890]” the “gcPBM binding intensity (ln)” value was 9.16.
With “TATATATATATATACACACACACAAAAAAAAAAAAA [CACACA_site1505]” the “gcPBM binding intensity (ln)” value was 10.1.
“AAAATAACGAGTCAAACACACATATATATATATATA [CACACA_site2039]” was tested, and the “gcPBM binding intensity (ln)” value was 9.47.
In the case of “TATGCAAGGAACCACACACACACACCCAAATGTATA [CACACA_site750]”, the “gcPBM binding intensity (ln)” value was 10.1.
For “TATCTCTCTTTCTGCTGTACATAAAAATTATATAAT [XGTACX_site5961]”, the “gcPBM binding intensity (ln)” value was 9.37.
With “AACATATTTTTAAATACACACACATAAAAAAAAAAA [CACACA_site8279]” the “gcPBM binding intensity (ln)” value was 9.85.
In the case of “TAATATTTATTCTATTGTACATAAAATATATATATA [XGTACX_site7132]”, the “gcPBM binding intensity (ln)” value was 9.06.
“GGAAAGACATTACACAGTACCCAGGAAATCTACGGA [XGTACX_site2002]” was tested, and the “gcPBM binding intensity (ln)” value was 9.39.
With “ATTATATATGTATAAATATGCTATATATATATATAT [GTGCAC_negctrl_site430]” the “gcPBM binding intensity (ln)” value was 9.08.
“TCAACATTTAAAAATAGTACTCATAAACCTTTCGAA [XGTACX_site4111]” was tested, and the “gcPBM binding intensity (ln)” value was 9.02.
In the case of “ATAAATAAAAAACACACACACACACCCAAAAAAAAA [CACACA_site2624]”, the “gcPBM binding intensity (ln)” value was 10.1.
In the case of “TATACATATGTATGCACACATACATACACATAGAAT [CACACA_site3480]”, the “gcPBM binding intensity (ln)” value was 9.43.
In the case of “TATATTATTTAAAAAGTGCAGTTACAAGATGAACCT [GTGCAC_site9641]”, the “gcPBM binding intensity (ln)” value was 9.14.
In the case of “ATTGATTTTTAATATACACACATAAGGACCACAAAA [CACACA_site4344]”, the “gcPBM binding intensity (ln)” value was 9.83.
In the case of “AGAGAATATTTCCACACATGCAAATGTTATATGTAA [TGCATGCA_site282]”, the “gcPBM binding intensity (ln)” value was 9.24.
In the case of “AATACGCATTTTAGTACACACTTAAAAAGTTATTTT [CACACA_site7401]”, the “gcPBM binding intensity (ln)” value was 9.28.
For “AATTATATTAATTCTTCATTACATTTTAAAATATTA [XGTACX_negctrl_site510]”, the “gcPBM binding intensity (ln)” value was 9.12.
“TGCTATTATTTATGTACACACCAATTTATTTATAAT [CACACA_site6029]” was tested, and the “gcPBM binding intensity (ln)” value was 9.54.
With “TTCGTTATATTTTGATGTACTGATTCATATATATAT [XGTACX_site1835]” the “gcPBM binding intensity (ln)” value was 9.5.
In the case of “AAAAAAAAAAAACACACACACACATTCAATATAAAA [CACACA_site40]”, the “gcPBM binding intensity (ln)” value was 10.
With “ATATGTATTTATGTATTTATGTATTTTTATATTTTT [CACACA_negctrl_site595]” the “gcPBM binding intensity (ln)” value was 9.66.
With “GGAATTTTTATTCGAAGTACTGTTGTGAGTAATAAA [XGTACX_site8599]” the “gcPBM binding intensity (ln)” value was 8.97.
In the case of “TAAATGTTAAAATTCACACAAATATGTGCGGAATAT [CACACA_site5055]”, the “gcPBM binding intensity (ln)” value was 9.22.
For “TTTGACTAAATTAAATATTAAAGTATGGATTATTCT [CACACA_negctrl_site833]”, the “gcPBM binding intensity (ln)” value was 8.91.
“ATATATAATATATACACACACATGTATATATAAATA [CACACA_site1968]” was tested, and the “gcPBM binding intensity (ln)” value was 9.68.
For “ACCCATTTGATAATAATGCACACCACATATATTTAT [CACACA_site3061]”, the “gcPBM binding intensity (ln)” value was 9.62.
For “TGCAAGGAACAACACACACACACATAAATGTATATA [CACACA_site8149]”, the “gcPBM binding intensity (ln)” value was 10.2.
